# From the supplement of paper PMC8728848
# This is one part of the list.
# Experiments:
# Assay in all cases: glycan array binding signal (z-score within array); higher = stronger binding
# Conditions in all cases: glycan notation: IUPAC condensed, linker removed
# [1] = biological target: GlcNAc(b1-2)Gal(b1-3)GalNAc
# Method in brief: (§1)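 From the Consortium for Functional Glycomics database, 3228 arrays were curated, keeping only those whose protein sequence was available. Binding is given as a within-array Z-score averaged across arrays sharing a protein sequence and across linkers. Negative Z-scores can be read as non-binding.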
# [2] = biological target: GlcNAc(b1-2)Man(a1-3)[GlcNAc(b1-2)Man(a1-6)]Man(b1-4)GlcNAc(b1-4)GlcNAc
# Method in brief: as §1
# [3] = biological target: GlcNAc(b1-2)Man(a1-3)[GlcNAc(b1-2)Man(a1-6)]Man(b1-4)GlcNAc(b1-4)[Fuc(a1-6)]GlcNAc
# Method in brief: as §1
# [4] = biological target: GlcNAc(b1-2)Man(a1-3)[GlcNAc(b1-4)][GlcNAc(b1-2)Man(a1-6)]Man(b1-4)GlcNAc(b1-4)GlcNAc
# Method in brief: as §1
# [5] = biological target: GlcNAc(b1-2)Man(a1-3)[GlcNAc(b1-4)][GlcNAc(b1-2)Man(a1-6)]Man(b1-4)GlcNAc(b1-4)[Fuc(a1-6)]GlcNAc
# Method in brief: as §1
# [6] = biological target: GlcNAc(b1-2)[GlcNAc(b1-4)]Man(a1-3)[GlcNAc(b1-2)Man(a1-6)]Man(b1-4)GlcNAc(b1-4)GlcNAc
# Method in brief: as §1
# [7] = biological target: GlcNAc(b1-2)[GlcNAc(b1-4)]Man(a1-3)[GlcNAc(b1-4)][GlcNAc(b1-2)Man(a1-6)]Man(b1-4)GlcNAc(b1-4)GlcNAc
# Method in brief: as §1
# [8] = biological target: GlcNAc(b1-2)[GlcNAc(b1-4)]Man(a1-3)[GlcNAc(b1-4)][GlcNAc(b1-2)[GlcNAc(b1-6)]Man(a1-6)]Man(b1-4)GlcNAc(b1-4)GlcNAc
# Method in brief: as §1
# [9] = biological target: GlcNAc(b1-2)[GlcNAc(b1-4)]Man(a1-3)[GlcNAc(b1-4)][GlcNAc(b1-2)[GlcNAc(b1-6)]Man(a1-6)]Man(b1-4)GlcNAc(b1-4)[Fuc(a1-6)]GlcNAc
# Method in brief: as §1
# [10] = biological target: GlcNAc(b1-2)[GlcNAc(b1-6)]Man(a1-6)[GlcNAc(b1-2)Man(a1-3)]Man(b1-4)GlcNAc(b1-4)GlcNAc
# Method in brief: as §1
# [11] = biological target: GlcNAc(b1-2)[GlcNAc(b1-6)]Man(a1-6)[GlcNAc(b1-2)Man(a1-3)]Man(b1-4)GlcNAc(b1-4)[Fuc(a1-6)]GlcNAc
# Method in brief: as §1
# [12] = biological target: GlcNAc(b1-2)[GlcNAc(b1-6)]Man(a1-6)[GlcNAc(b1-4)][GlcNAc(b1-2)Man(a1-3)]Man(b1-4)GlcNAc(b1-4)GlcNAc
# Method in brief: as §1
# [13] = biological target: GlcNAc(b1-3)Fuc
# Method in brief: as §1
# [14] = biological target: GlcNAc(b1-3)Gal
# Method in brief: as §1
# [15] = biological target: GlcNAc(b1-3)Gal(b1-3)GalNAc
# Method in brief: as §1
# [16] = biological target: GlcNAc(b1-3)Gal(b1-4)Glc
# Method in brief: as §1
# [17] = biological target: GlcNAc(b1-3)Gal(b1-4)GlcNAc
# Method in brief: as §1
# [18] = biological target: GlcNAc(b1-3)Gal(b1-4)GlcNAc(b1-2)Man(a1-3)[GlcNAc(b1-3)Gal(b1-4)GlcNAc(b1-2)Man(a1-6)]Man(b1-4)GlcNAc(b1-4)GlcNAc
# Method in brief: as §1
# [19] = biological target: GlcNAc(b1-3)Gal(b1-4)GlcNAc(b1-2)Man(a1-3)[GlcNAc(b1-3)Gal(b1-4)GlcNAc(b1-2)Man(a1-6)]Man(b1-4)GlcNAc(b1-4)[Fuc(a1-6)]GlcNAc
# Method in brief: as §1
# [20] = biological target: GlcNAc(b1-3)Gal(b1-4)GlcNAc(b1-2)[GlcNAc(b1-3)Gal(b1-4)GlcNAc(b1-6)]Man(a1-6)[GlcNAc(b1-3)Gal(b1-4)GlcNAc(b1-2)Man(a1-3)]Man(b1-4)GlcNAc(b1-4)GlcNAc
# Method in brief: as §1
# [21] = biological target: GlcNAc(b1-3)Gal(b1-4)GlcNAc(b1-3)Gal(b1-4)GlcNAc
# Method in brief: as §1
# [22] = biological target: GlcNAc(b1-3)Gal(b1-4)GlcNAc(b1-3)Gal(b1-4)GlcNAc(b1-2)Man(a1-3)[GlcNAc(b1-3)Gal(b1-4)GlcNAc(b1-3)Gal(b1-4)GlcNAc(b1-2)Man(a1-6)]Man(b1-4)GlcNAc(b1-4)GlcNAc
# Method in brief: as §1
# [23] = biological target: GlcNAc(b1-3)Gal(b1-4)GlcNAc(b1-3)Gal(b1-4)GlcNAc(b1-2)Man(a1-3)[GlcNAc(b1-3)Gal(b1-4)GlcNAc(b1-3)Gal(b1-4)GlcNAc(b1-2)Man(a1-6)]Man(b1-4)GlcNAc(b1-4)[Fuc(a1-6)]GlcNAc
# Method in brief: as §1
# [24] = biological target: GlcNAc(b1-3)Gal(b1-4)GlcNAc(b1-3)Gal(b1-4)GlcNAc(b1-2)[GlcNAc(b1-3)Gal(b1-4)GlcNAc(b1-3)Gal(b1-4)GlcNAc(b1-6)]Man(a1-6)[GlcNAc(b1-3)Gal(b1-4)GlcNAc(b1-3)Gal(b1-4)GlcNAc(b1-2)Man(a1-3)]Man(b1-4)GlcNAc(b1-4)[Fuc(a1-6)]GlcNAc
# Method in brief: as §1
# [25] = biological target: GlcNAc(b1-3)Gal(b1-4)GlcNAc(b1-3)Gal(b1-4)GlcNAc(b1-3)Gal(b1-4)GlcNAc(b1-2)Man(a1-3)[GlcNAc(b1-3)Gal(b1-4)GlcNAc(b1-3)Gal(b1-4)GlcNAc(b1-3)Gal(b1-4)GlcNAc(b1-2)Man(a1-6)]Man(b1-4)GlcNAc(b1-4)GlcNAc
# Method in brief: as §1
# [26] = biological target: GlcNAc(b1-3)Gal(b1-4)GlcNAc(b1-3)Gal(b1-4)GlcNAc(b1-3)Gal(b1-4)GlcNAc(b1-2)Man(a1-3)[GlcNAc(b1-3)Gal(b1-4)GlcNAc(b1-3)Gal(b1-4)GlcNAc(b1-3)Gal(b1-4)GlcNAc(b1-2)Man(a1-6)]Man(b1-4)GlcNAc(b1-4)[Fuc(a1-6)]GlcNAc
# Method in brief: as §1
# [27] = biological target: GlcNAc(b1-3)Gal(b1-4)GlcNAc(b1-3)Gal(b1-4)GlcNAc(b1-3)Gal(b1-4)GlcNAc(b1-2)[GlcNAc(b1-3)Gal(b1-4)GlcNAc(b1-3)Gal(b1-4)GlcNAc(b1-3)Gal(b1-4)GlcNAc(b1-6)]Man(a1-6)[GlcNAc(b1-3)Gal(b1-4)GlcNAc(b1-3)Gal(b1-4)GlcNAc(b1-3)Gal(b1-4)GlcNAc(b1-2)Man(a1-3)]Man(b1-4)GlcNAc(b1-4)[Fuc(a1-6)]GlcNAc
# Method in brief: as §1
# [28] = biological target: GlcNAc(b1-3)Gal(b1-4)GlcNAc(b1-3)Gal(b1-4)GlcNAc(b1-3)Gal(b1-4)GlcNAc(b1-3)Gal(b1-4)GlcNAc(b1-2)Man(a1-3)[GlcNAc(b1-3)Gal(b1-4)GlcNAc(b1-3)Gal(b1-4)GlcNAc(b1-3)Gal(b1-4)GlcNAc(b1-3)Gal(b1-4)GlcNAc(b1-2)Man(a1-6)]Man(b1-4)GlcNAc(b1-4)GlcNAc
# Method in brief: as §1
# [29] = biological target: GlcNAc(b1-3)Gal(b1-4)GlcNAc(b1-3)Gal(b1-4)GlcNAc(b1-3)Gal(b1-4)GlcNAc(b1-3)Gal(b1-4)GlcNAc(b1-2)Man(a1-3)[GlcNAc(b1-3)Gal(b1-4)GlcNAc(b1-3)Gal(b1-4)GlcNAc(b1-3)Gal(b1-4)GlcNAc(b1-3)Gal(b1-4)GlcNAc(b1-2)Man(a1-6)]Man(b1-4)GlcNAc(b1-4)[Fuc(a1-6)]GlcNAc
# Method in brief: as §1
# [30] = biological target: GlcNAc(b1-3)Gal(b1-4)GlcNAc(b1-3)Gal(b1-4)GlcNAc(b1-3)Gal(b1-4)GlcNAc(b1-3)Gal(b1-4)GlcNAc(b1-2)[GlcNAc(b1-3)Gal(b1-4)GlcNAc(b1-3)Gal(b1-4)GlcNAc(b1-3)Gal(b1-4)GlcNAc(b1-3)Gal(b1-4)GlcNAc(b1-6)]Man(a1-6)[GlcNAc(b1-3)Gal(b1-4)GlcNAc(b1-3)Gal(b1-4)GlcNAc(b1-3)Gal(b1-4)GlcNAc(b1-3)Gal(b1-4)GlcNAc(b1-2)Man(a1-3)]Man(b1-4)GlcNAc(b1-4)[Fuc(a1-6)]GlcNAc
# Method in brief: as §1
# [31] = biological target: GlcNAc(b1-3)Gal(b1-4)GlcNAc(b1-3)Gal(b1-4)GlcNAc(b1-3)GalNAc
# Method in brief: as §1
# [32] = biological target: GlcNAc(b1-3)Gal(b1-4)GlcNAc(b1-3)GalNAc
# Method in brief: as §1
# [33] = biological target: GlcNAc(b1-3)Gal(b1-4)GlcNAc(b1-3)[GlcNAc(b1-3)Gal(b1-4)GlcNAc(b1-3)]GalNAc
# Method in brief: as §1
# [34] = biological target: GlcNAc(b1-3)Gal(b1-4)GlcNAc(b1-6)[Gal(b1-3)]GalNAc
# Method in brief: as §1
# [35] = biological target: GlcNAc(b1-3)Gal(b1-4)GlcNAc(b1-6)[GlcNAc(b1-3)Gal(b1-3)]GalNAc
# Method in brief: as §1
# [36] = biological target: GlcNAc(b1-3)Gal(b1-4)GlcNAc(b1-6)[GlcNAc(b1-3)]Gal(b1-4)GlcNAc
# Method in brief: as §1
# [37] = biological target: GlcNAc(b1-3)GalNAc
# Method in brief: as §1
binder,measurement,setting,value
PX9937D-bvu-500-26-500 (Bacteroides vulgatus) (protein) DPVSDITDLNYWKTPEQFDSFVFGLHSRFRSHSWNMFLLGEARSDVFGGIPFGGEATQGMERFPYNTLNAENPGISGFGDLYQNINQMNLFISRTLHTDVLTESARNYYLGQVYGLRAYYMYQLYRSWGDVVFTEEPSLGFEVGKLAKAATPAAEIFEQVKKDIESSLSYFGSDYTIKEKKSLWSKAATLMLKADVYLWSAHRDGGEGDARTAKNALVDIQNNISRSNLDLMDTYQGVFAYDNKGNKEIIFTIHNELFEYNLWNGNNDLFPQADYLGKFYNADGTLINTSVENNFGIMRLMVKLENFKKFLPGDTRRDVTLKDVYNKVENGKLELVGVYPHKYWGVMNGSTRVRCDDYPIYRYSDLLLMLAEAKVLLGEDPATEINRVRRRAFGDAYDASTVGFPNQEVDKRPADAVLQERLFEFMLEGKRWYDLRRFGDSYVLDYTPAEPARLLWPINQGALTNNPLLKQTVGY,glycan array binding signal (z-score),[1],-0.374
same,glycan array binding signal (z-score),[2],-0.215
same,glycan array binding signal (z-score),[3],-0.178
same,glycan array binding signal (z-score),[4],0.281
same,glycan array binding signal (z-score),[5],-0.382
same,glycan array binding signal (z-score),[6],-0.032
same,glycan array binding signal (z-score),[7],-0.541
same,glycan array binding signal (z-score),[8],-0.123
same,glycan array binding signal (z-score),[9],-0.277
same,glycan array binding signal (z-score),[10],0.163
same,glycan array binding signal (z-score),[11],-0.475
same,glycan array binding signal (z-score),[12],-0.588
same,glycan array binding signal (z-score),[13],-0.441
same,glycan array binding signal (z-score),[14],-0.181
same,glycan array binding signal (z-score),[15],-0.22
same,glycan array binding signal (z-score),[16],-0.124
same,glycan array binding signal (z-score),[17],-0.346
same,glycan array binding signal (z-score),[18],-0.442
same,glycan array binding signal (z-score),[19],0.076
same,glycan array binding signal (z-score),[20],0.423
same,glycan array binding signal (z-score),[21],-0.558
same,glycan array binding signal (z-score),[22],0.434
same,glycan array binding signal (z-score),[23],0.256
same,glycan array binding signal (z-score),[24],0.138
same,glycan array binding signal (z-score),[25],-0.173
same,glycan array binding signal (z-score),[26],0.12
same,glycan array binding signal (z-score),[27],0.224
same,glycan array binding signal (z-score),[28],0.126
same,glycan array binding signal (z-score),[29],-0.298
same,glycan array binding signal (z-score),[30],1
same,glycan array binding signal (z-score),[31],-0.353
same,glycan array binding signal (z-score),[32],-0.366
same,glycan array binding signal (z-score),[33],-0.076
same,glycan array binding signal (z-score),[34],-0.099
same,glycan array binding signal (z-score),[35],0.114
same,glycan array binding signal (z-score),[36],-0.546
same,glycan array binding signal (z-score),[37],-0.619
